The shares of active, inactive and inconclusive entries below differ from those in the screen. For some assays here: A potency beside an inconclusive call is a rough fit, not a confirmed value. Active and inactive are the calls of the source. Calls come from the whole dose curve; as a rule, active = well fitted curve in the direction sought with a large enough effect; inconclusive = small, poorly fitted or top-dose-only effect, or another doubt; inactive = no such curve, though single readings can be large; an effect the other way counts as inactive or inconclusive.
Assays:
[1] = Primary qHTS for inhibitors of nuclear receptor binding SET domain protein 2 (NSD2) in an isogenic RCH-ACV NSD2 p.E1099K mutant (9B) (AID 1645876); note: % is set by controls: 0 for no effect and ±100 for the full control effect; nearly all actives have a fitted effect of over 70% in size
[2] = Primary qHTS for inhibitors of nuclear receptor binding SET domain protein 2 (NSD2) in an RCH-ACV wild type WT cells (2C) (AID 1645877); conditions: activity change, negative = cell killing: at 44.9 µM (top of the series); note: % is set by controls: 0 for no effect and ±100 for the full control effect; nearly all actives have a fitted effect of over 70% in size
[3] = Primary redox qHTS assay for identification of artifact compounds. (AID 1845223);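 note: 0% = DMSO and 100% = reference compound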
Method in brief: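 Amplex Red (25 uM) and HRP (250 mU/mL) in HBSS, with compounds for 15 min, then 250 uM DTT for 30 min, room temperature, dark. Fluorescence 525/598 nm read; normalized to DMSO and 10 uM DA3003; Hill fit.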

HaCat = assay: Cytotoxic Profiling of Annotated Libraries Using Quantitative High-Throughput Screening (AID 1296008); conditions: Five cell lines viability, CellTiter-Glo ATP luminescence, 48-72 h; max response: active compounds read low; note: nearly all actives have a fitted effect of over 60% in size; for max response: % is set by controls: 0 for no effect and ±100 for the full control effect
Method in brief: (§1)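 Compounds were pin-transferred onto cells and incubated 48 or 72 hr at 37 degree Celsius, 95% humidity. CellTiter-Glo was added, plates sat 10 min at room temperature, then ATP-coupled luminescence was imaged as the viability read-out.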

Hek293T = assay: Primary qHTS to identify gynecologic anti-cancer compounds using libraries of approved drugs and bioactive compounds (AID 1345084); conditions: Gynecologic cancer cell panel viability, ATPlite luminescence, 48 h, control line for the selectivity index; series mostly up to 57.5 µM; note: nearly all actives have a fitted effect of over 55% in size; note: potency is the fitted concentration of half-maximal effect; for activity change, negative = cytotoxicity: % is set by controls: 0 for no effect and ±100 for the full control effect
Method in brief: (§2)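 Cytotoxicity screen measuring ATP content by luciferase luminescence. Each compound is applied at five concentrations for 48 h at 37 C with 5% CO2.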

[4] = target: Ubiquitin carboxyl-terminal hydrolase 1 (Homo sapiens) (UniProt O94782); assay: Inhibitors of USP1/UAF1: Pilot qHTS (AID 504865);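 note: rhodamine fluorescence freed from ubiquitin-rhodamine substrate followed over time; top concentration of the series differs between compounds; % is set by controls: 0 for no effect and ±100 for the full control effect; nearly all actives have a fitted effect of over 35% in size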
Method in brief: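 Deubiquitinase activity followed as kinetic rhodamine fluorescence release from 150 nM Ub-Rho. 1 nM USP1/UAF1 with compound, after 15 min room-temperature preincubation, in HEPES pH 7.8 buffer containing TCEP, EDTA, BSA and Tween-20.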

[5] = P-glycoprotein substrates identified in KB-3-1 adenocarcinoma cell line, qHTS therapeutic library screen (AID 1346986); conditions: KB-3-1 parental cells viability, CellTiter-Glo, 72 h; note: nearly all actives have a fitted effect of over 60% in size
Method in brief: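 Resistance attributable to P-gp was assessed by comparing AC50 in KB-8-5-11 with parental KB-3-1 and by tariquidar reversal. Cells were exposed 72 h and viability read by CellTiter-Glo.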

[6] = qHTS of pediatric cancer cell lines to identify multiple opportunities for drug repurposing: Primary screen for NB-EBc1 cells (AID 1347095);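 note: plate controls were DMSO neutral control for no effect and bortezomib for full effect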
Method in brief: (§3)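 500-1,000 cells/well; 5 h pre-incubation 37 °C/5% CO2; compound pinned; 48 h; CellTiter-Glo, 15 min RT; luminescence. MIPE 11-pt from 0.78 nM, NPC 8-pt from 0.59 nM final. Bortezomib 2.3 µM final as positive control.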

[7] = qHTS of pediatric cancer cell lines to identify multiple opportunities for drug repurposing: Primary screen for NB1643 cells (AID 1347099);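 note: plate controls were DMSO neutral control for no effect and bortezomib positive control for full effect; nearly all actives have a fitted effect of over 50% in size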
Method in brief: as §3

[8] = qHTS of pediatric cancer cell lines to identify multiple opportunities for drug repurposing: Primary screen for BT-12 cells (AID 1347101);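 note: plate controls were DMSO for no effect and bortezomib positive control for full effect; nearly all actives have a fitted effect of over 25% in size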
Method in brief: (§4)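 Cells (500-1,000/well) rested 5 h, then received compounds for 48 h; metabolically active cells were measured by CellTiter-Glo luminescence. Final concentrations spanned up to 46 µM (MIPE, 11-point) or 0.59 nM-46 µM (NPC, 8-point) in primary screens, 11-point in follow-ups.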

[9] = qHTS of pediatric cancer cell lines to identify multiple opportunities for drug repurposing: Primary screen for OHS-50 cells (AID 1347103); note: potency is the fitted concentration of half-maximal effect; nearly all actives have a fitted effect of over 40% in size
Method in brief: as §4

[10] = qHTS of pediatric cancer cell lines to identify multiple opportunities for drug repurposing: Primary screen for Rh41 cells (AID 1347108);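 note: luminescence drop marks cytotoxic hits; nearly all actives have a fitted effect of over 70% in size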
Method in brief: as §3

CP191 = assay: qHTS profiling for inhibitors of Plasmodium falciparum proliferation (AID 504749);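 note: 0% = DMSO vehicle and full inhibition = artemisinin control; nearly all actives have a fitted effect of over 60% in size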; conditions: P. falciparum in erythrocytes, SYBR Green DNA, 72 h; series mostly up to 28.7 µM
Method in brief: (§5)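 Parasite proliferation within erythrocytes, 72 h exposure. Endpoint: SYBR Green I fluorescence after overnight lysis at room temperature. Controls: 0.29 uM artemisinin, DMSO.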

CP266 = assay: as above; conditions: P. falciparum in erythrocytes, SYBR Green DNA, 72 h; series mostly up to 28.7 µM
Method in brief: as §5

DIV30 = assay: as above; conditions: P. falciparum in erythrocytes, SYBR Green DNA, 72 h; series mostly up to 28.7 µM
Method in brief: as §5

TAB113 = assay: as above; conditions: P. falciparum in erythrocytes, SYBR Green DNA, 72 h; series mostly up to 28.7 µM
Method in brief: as §5

HEK293 = assay: Cytotoxic Profiling of Annotated Libraries Using Quantitative High-Throughput Screening (AID 1296008); conditions: Five cell lines viability, CellTiter-Glo ATP luminescence, 48-72 h; max response: active compounds read low; note: nearly all actives have a fitted effect of over 60% in size; for max response: % is set by controls: 0 for no effect and ±100 for the full control effect
Method in brief: as §1

WaGa = assay: qHTS assay to identify novel small-molecules to repurpose for Merkel cell carcinoma treatment (AID 1296009); conditions: MCC and control cell lines, CellTiter-Glo viability, 72 h; series mostly up to 46 µM
Method in brief: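 qHTS format: cells treated with library compounds in DMSO across 8 (NPC) or 11 (MIPE) concentrations. Readout after 72 hr at 37 degree celsius was CellTiter-Glo luminescence.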

CAOV3 = assay: Primary qHTS to identify gynecologic anti-cancer compounds using libraries of approved drugs and bioactive compounds (AID 1345084); conditions: Gynecologic cancer cell panel viability, ATPlite luminescence, 48 h; series mostly up to 57.5 µM; note: nearly all actives have a fitted effect of over 55% in size; note: potency is the fitted concentration of half-maximal effect; for activity change, negative = cytotoxicity: % is set by controls: 0 for no effect and ±100 for the full control effect
Method in brief: as §2

SKOV3 = assay: as above; conditions: Gynecologic cancer cell panel viability, ATPlite luminescence, 48 h; series mostly up to 57.5 µM
Method in brief: as §2

Tov-21-G = assay: as above; conditions: Gynecologic cancer cell panel viability, ATPlite luminescence, 48 h; activity change, negative = cytotoxicity: at 57.5 µM (top of the series)
Method in brief: as §2

[11] = Drug repurposing screens with cells derived from glioblastoma tumor samples (AID 1345199); conditions: GBM patient neurospheres viability, ATP luminescence, 48 h; Potency: tumour line A unless noted; activity, negative = cell killing: at 46 µM (top of the series), tumour line A unless noted; note: potency is the fitted concentration of half-maximal effect; nearly all actives have a fitted effect of over 40% in size
Method in brief: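 Four patient lines of CD133+ GBM neurospheres were screened at several concentrations; hits were retested in those lines plus three slower-growing GBM lines, using 48-hour treatment and ATP-based viability.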
Tags give direction and shape of the fitted curve.

Chain of UniProt O94782 (O94782 whole entry, looked up): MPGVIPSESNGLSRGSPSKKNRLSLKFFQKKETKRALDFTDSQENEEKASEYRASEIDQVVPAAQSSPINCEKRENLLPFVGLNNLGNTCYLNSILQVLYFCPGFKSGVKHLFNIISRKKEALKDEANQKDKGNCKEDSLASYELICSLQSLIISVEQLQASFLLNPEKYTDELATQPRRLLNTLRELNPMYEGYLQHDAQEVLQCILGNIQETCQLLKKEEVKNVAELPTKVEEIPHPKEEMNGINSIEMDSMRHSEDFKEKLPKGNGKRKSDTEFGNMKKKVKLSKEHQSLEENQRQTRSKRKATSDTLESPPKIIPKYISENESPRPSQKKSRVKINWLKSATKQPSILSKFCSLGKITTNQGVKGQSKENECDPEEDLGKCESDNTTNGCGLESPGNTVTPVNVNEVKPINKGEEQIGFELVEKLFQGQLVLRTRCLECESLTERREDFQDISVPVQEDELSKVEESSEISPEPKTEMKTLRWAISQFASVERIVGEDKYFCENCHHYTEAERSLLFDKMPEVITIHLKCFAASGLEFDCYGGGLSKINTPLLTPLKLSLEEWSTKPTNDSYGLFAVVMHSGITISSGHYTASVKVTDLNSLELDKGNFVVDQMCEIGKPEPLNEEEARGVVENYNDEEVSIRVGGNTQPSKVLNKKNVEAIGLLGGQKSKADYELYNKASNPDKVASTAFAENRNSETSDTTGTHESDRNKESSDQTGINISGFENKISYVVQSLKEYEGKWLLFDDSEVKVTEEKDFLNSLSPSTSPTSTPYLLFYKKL

COc1cc(/C=C/C(=O)OC[C@H]2O[C@H](O[C@]3(CO)O[C@H](CO)[C@@H](O)[C@@H]3O)[C@H](O)[C@@H](O)[C@@H]2O)cc(OC)c1O
inactive: Potency [1] | Potency [2] | Potency [3] | outcome (HaCat) | Potency (Hek293T)

Cn1c(=O)c2nc(/C=C/c3cccc(Cl)c3)n(C)c2n(C)c1=O
inactive: max response (HaCat) -5.76%

CCCCN=C(N)N=C(N)N
inconclusive: Potency [9] 13.8 µM [cytotoxic, partial curve] | Potency (WaGa) 33.5 µM [inhibitor, partial curve, poor fit] | Potency (CAOV3) 39.8 µM [cytotoxic, single point] | Potency (SKOV3) 22.4 µM [cytotoxic, single point] | Potency [11] 31.6 µM [inhibitor, partial curve]
inactive: Potency [4] | outcome [5] inactive [setting not given] | Potency [6] | Potency [7] | Potency [8] | Potency [10] | Potency (CP191) | Potency (CP266) | Potency (DIV30) | Potency (TAB113) | outcome (HEK293) | Potency (Tov-21-G)

Reference: PubChem BioAssay (NCATS)
